# Laboratory results published in publication PMC4336329 (PLoS ONE, 2015).
# Among all 310,000 compounds or so, about 2,200 (0.71%) showed an effect of 50% or more. Effects have a minus sign here. This is one part of the list.
# Target: human ether-à-go-go-related gene (hERG) potassium channel (human, UniProt Q12809)
# Experiment: primary screen, population patch clamp on CHO cells stably expressing hERG
# Sequence of human ether-à-go-go-related gene (hERG) potassium channel (Q12809 whole entry, looked up): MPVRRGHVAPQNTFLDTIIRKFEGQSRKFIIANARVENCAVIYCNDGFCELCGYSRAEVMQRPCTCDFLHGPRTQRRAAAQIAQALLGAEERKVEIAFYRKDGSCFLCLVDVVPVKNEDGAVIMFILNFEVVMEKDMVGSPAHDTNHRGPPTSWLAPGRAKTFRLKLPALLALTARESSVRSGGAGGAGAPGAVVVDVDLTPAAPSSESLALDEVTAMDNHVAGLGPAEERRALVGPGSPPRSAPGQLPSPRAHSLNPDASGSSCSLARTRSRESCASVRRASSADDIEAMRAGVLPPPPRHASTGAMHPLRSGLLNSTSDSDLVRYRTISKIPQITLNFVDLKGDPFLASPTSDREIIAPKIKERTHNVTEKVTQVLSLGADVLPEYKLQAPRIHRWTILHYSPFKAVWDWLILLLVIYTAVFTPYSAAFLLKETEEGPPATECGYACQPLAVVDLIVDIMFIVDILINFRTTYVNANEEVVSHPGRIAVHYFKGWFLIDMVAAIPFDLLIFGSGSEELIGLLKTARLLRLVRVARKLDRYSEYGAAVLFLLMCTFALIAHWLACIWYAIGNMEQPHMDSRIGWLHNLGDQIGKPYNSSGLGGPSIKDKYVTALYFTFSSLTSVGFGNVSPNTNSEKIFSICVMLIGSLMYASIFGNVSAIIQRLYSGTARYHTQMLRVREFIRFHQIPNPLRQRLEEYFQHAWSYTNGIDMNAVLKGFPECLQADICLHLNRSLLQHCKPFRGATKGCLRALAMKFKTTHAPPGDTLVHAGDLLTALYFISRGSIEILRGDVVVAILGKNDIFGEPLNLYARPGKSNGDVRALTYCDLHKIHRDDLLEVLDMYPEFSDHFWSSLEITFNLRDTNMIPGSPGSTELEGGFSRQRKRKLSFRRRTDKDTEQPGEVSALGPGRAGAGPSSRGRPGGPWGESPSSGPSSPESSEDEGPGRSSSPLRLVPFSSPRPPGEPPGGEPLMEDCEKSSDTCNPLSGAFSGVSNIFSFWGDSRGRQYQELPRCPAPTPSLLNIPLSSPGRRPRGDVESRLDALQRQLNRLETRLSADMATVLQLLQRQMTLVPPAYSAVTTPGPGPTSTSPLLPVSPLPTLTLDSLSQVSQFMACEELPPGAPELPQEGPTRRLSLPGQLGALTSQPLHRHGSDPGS
row,Structure (SMILES),"hERG current change (%, negative = inhibition) at 1uM"
1,CSc1nc(N)nc(N(C)C)n1,13.5%
2,COc1ccc(CN(C(=O)/C=C/c2ccco2)C2CCS(=O)(=O)C2)cc1 (centres unmarked),11.9%
3,CC(C(=O)NC(N)=O)N1C(=O)NC(c2ccccc2)(c2ccccc2)C1=O (centres unmarked),-0.156%
4,CCOc1ccccc1Nc1nnc(SCC(=O)NC(Cc2c[nH]c3ccccc23)C(=O)O)s1 (centres unmarked),11.9%
5,C=CCOc1ccc(/C=N/NC(=O)CN2CCCCC2)cc1OC,-6.47%
6,OCC1(CCc2ccccc2)CCN(Cc2cc(F)ccc2-n2cccn2)CC1,-85.3%
7,CC1(C)Cc2nc(-c3ccccc3)nc(SCC(O)CO)c2CO1 (centres unmarked),4.23%
8,CCOC(=O)c1c(C)[nH]c(C(=O)NCc2ccco2)c1C,8.03%
9,CN1CCN(c2ccccc2NC(=O)c2ccc(F)cc2)CC1,2.08%
10,CCCCc1nc2ccccc2c(=O)n1-c1ccccc1O,9.52%
11,OCC1(CCCc2ccccc2)CCN(Cc2cnc(N3CCOCC3)s2)CC1,-6.15%
12,Cc1ccc2c(c1)C(=O)CC(O)(C(F)(F)F)O2 (centres unmarked),13.5%
13,CCCn1nnc2c(=O)oc3ccccc3c21,8.13%
14,Cn1cc(C(=O)c2ccc(Cl)cc2Cl)cc1C=O,6.93%
15,Cc1c(NC(=O)CN2CCCc3ccccc32)c(=O)n(-c2ccccc2)n1C,4.77%
16,Cc1ccc2sc(-c3ccc(NC(=O)c4cc(-n5cnnc5)ccc4Cl)cc3)nc2c1,-3.41%
17,CCCC(=O)Nc1ccc(Cl)c(NC(=O)c2ccco2)c1,12%
18,O=C1CCCN1CCC1CCCCN1Cc1nc(COc2ccccc2)no1 (centres unmarked),10.8%
19,CC(Sc1ccc(Cl)cc1)C(=O)NCC(c1ccco1)N1CCCCC1 (centres unmarked),-0.296%
20,CCOCC(=O)Nc1nnc(Cc2ccc(OC)cc2)s1,8.4%
21,CC(=O)O/N=C/c1c(Cl)n(C)c2ccccc12,6.55%
22,Cc1ccc(CN2C3CCCC2CC(NC(=O)c2ccc(F)cc2)C3)cc1 (centres unmarked),-77%
23,Cn1cccc1C(=O)NCc1ccc(S(N)(=O)=O)cc1,11.7%
24,Cc1onc(-c2ccccc2)c1C(=O)Nc1nnc(N2CCCCCC2)s1,6.25%
25,Cc1nnc(NC(=O)c2ccc3c(c2)C(=O)N(CC2CCCO2)C3=O)s1 (centres unmarked),-0.711%
26,COc1ccc(OC)c(CN2C(=O)CCC2(C)C(=O)NC2CCCCCC2)c1 (centres unmarked),-2.84%
